Out of some 52,000 compounds screened, about 4,300 (8.3%) were called active. Cut-off read from the data, not from the text of the source: active = survival mostly below about 52% (no sharp cut-off); inactive = mostly above about 56%. This is one part of the list.

The experiment deals with DeltatarO mutant. Put plainly: S. aureus survival, RN4220 and DeltatarO strains – OD600, teichoic acid synthesis inhibitors, primary screen (AID 463173). The settings on record: S. aureus RN4220 wild type/DeltatarO growth, OD600, 18 h, hits give low values, screened at 18.75 µg/mL (by protocol).
Take `COc1ccccc1CNC(=O)Cc1c(C)c2cc3c(C)coc3c(C)c2oc1=O`: the survival was inactive: 62%.
With `COc1ccc(CNC(=O)CC(C)CC2=NS(=O)(=O)c3ccccc3N2)cc1` (stereo unspecified), the survival is inactive: 102%.
On to `Cc1ccccc1Cn1c(=O)n(Cc2ccco2)c(=O)c2sc3ccccc3c21`, for which the survival was inactive: 118%.
For `CCOc1ccc(S(=O)(=O)Nc2ccc3c(c2)CCCN3C(=O)c2cccs2)cc1`, the survival is inactive: 79%.
`CCOc1ccc(CCNC(=O)C2Cc3ccccc3N2C(=O)CC)cc1` (stereo unspecified): the survival was inactive: 82%.
Consider `CCOC(=O)c1ccc(Nc2c(-c3ccc(OC)cc3)nc3nc[nH]n23)cc1`, for which the survival is inactive: 105%.
The result for `CCC(=O)N1CCc2cc(CNC(=O)Nc3cc(OC)c(OC)c(OC)c3)ccc21` reads inactive: 79%; that for `CCN(CC)C(=O)C1=C(C)Nc2nc3ccccc3n2C1c1ccccc1F` (stereo unspecified), inactive: 163%.
Under `CCOC(=O)c1cc2c(=O)n3ccccc3nc2n(CCCOC)c1=NC(=O)c1c(-c2c(F)cccc2Cl)noc1C` stands inactive: 54%; under `CCOC(=O)C1CCCN(C(=O)Cn2ncc3c(C)n(Cc4ccc(Cl)cc4)c(C)c3c2=O)C1` (stereo unspecified), inactive: 59%; under `Cc1ccc(NC(=O)c2ccc3c(O)c(S(=O)(=O)c4ccc(Cl)cc4)c(=O)[nH]c3c2)cc1`, inactive: 104%.
For the molecule `CC1=C(C#N)C(NC(=O)c2ccccc2)(C(F)(F)F)C(=O)N1` (stereo unspecified), the survival is inactive: 69%.
With `CC(C)c1ccccc1NC(=O)C(Cc1c[nH]c2ccccc12)NC(=O)OC(C)(C)C` (stereo unspecified), the survival was inactive: 162%.
Regarding `Cc1ccc(S(=O)(=O)c2nc(-c3cccs3)oc2SCc2ccc(F)cc2)cc1`, the survival is inactive: 62%.
As to `Cc1cccc(N2CCN(C(=O)Cn3c(C)c4cnn(-c5ccccc5)c(=O)c4c3C)CC2)c1C`, the survival was inactive: 67%.
As to `CCCCn1c(SCc2ccccc2C)nc2ccsc2c1=O`, the survival was inactive: 124%.
Turning to `Cc1nnc(SCc2cc(=O)c3cc(F)ccc3[nH]2)n1C`, the survival is inactive: 75%.
Under `CC(Oc1ccccc1)C(=O)Nc1c(C(=O)Nc2cccc(F)c2)oc2ccccc12` (stereo unspecified) stands inactive: 63%; under `Cc1ccc(C)c(N2CCN(S(=O)(=O)c3cc(C(=O)Nc4ccccc4C(F)(F)F)ccc3F)CC2)c1`, inactive: 69%; under `CCOC(=O)c1c(NC(=O)COc2ccc(Cl)cc2Cl)sc2c1CCCCC2`, inactive: 56%.
As to `CCc1ccc(S(=O)(=O)Nc2cc3c(cc2C)n(C)c(=O)c(=O)n3C)cc1`, the survival is inactive: 64%.
Turning to `CN(C)c1ccc(CNC(=O)Cn2c(-c3cccs3)cc3cc(Cl)ccc32)cc1`, the survival is inactive: 96%.
For the molecule `CCCC(=O)N1c2ccccc2-c2nnc(SC)nc2OC1c1sccc1C` (stereo unspecified), the survival was inactive: 51%.
The result for `COc1ccc(S(=O)(=O)N2CCC(n3c(C)nc4cccnc43)CC2)cc1Cl` reads inactive: 135%; that for `CN(C(=O)c1ccccc1)c1nc(-c2ccccc2)cs1`, inactive: 83%; that for `CCOC(=O)C1CCN(S(=O)(=O)c2ccccc2)CC1`, inactive: 69%.
Regarding `Cc1n[nH]c(=S)n1CC(=O)n1c2c(c3ccccc31)CCCC2`, the survival was inactive: 91%.
As for `Cc1ccc(-c2nnc(SCC(=O)NCc3ccccc3)o2)cc1`, the survival was inactive: 142%.
For `CC1=C(c2ccc(C)c(C)c2)S(=O)(=O)N=C1N1CCC(C(=O)NCc2ccc(N(C)C)cc2)CC1`, the survival is inactive: 64%.
As for `Nc1c(-c2nc(-c3ccccc3Cl)no2)nnn1-c1ccccc1C(F)(F)F`, the survival is inactive: 97%.
With `CCC(C)[C@@H](C(=O)Nc1ccc(C)cc1)N1Cc2ccccc2C1=O` (stereo partly specified), the survival was inactive: 74%.
Under `O=c1c2oc3ccccc3c2n(Cc2ccccc2F)c(=O)n1Cc1ccc2c(c1)OCO2` stands inactive: 78%; under `C/C=C1\NC(=S)N(Cc2ccccc2)C1=O`, inactive: 84%; under `CCN(CC)S(=O)(=O)c1ccc(NC(=O)c2c(C)oc3ncnc(N4CCCCC4)c23)cc1`, inactive: 81%.
As to `COc1ccc(-c2n[nH]c3c2C(c2ccccn2)N(C)C3=O)cc1` (stereo unspecified), the survival is inactive: 43%.
The result for `COc1ccc(-n2nc3c(N4CCC(C(=O)NC5CCCCC5)CC4)nnc(C)c3c2C)cc1` reads inactive: 90%.
The result for `O=C1C2C(C(=O)N1c1ccccc1)N1CCCN1C2c1ccccc1` (stereo unspecified) reads inactive: 82%.
For `CCOc1ccc(CNS(=O)(=O)c2ccc3c(c2)CC(C)N3C(C)=O)cc1OC` (stereo unspecified), the survival is inactive: 83%.
In the case of `COc1ccc(OC)c(CCNC(=O)CCCn2c(=O)c3cccn3c3cccnc32)c1`, the survival was inactive: 93%.
On to `O=C(NCc1ccccc1)c1ccc(CS(=O)(=O)c2c(Cl)cccc2Cl)o1`, for which the survival is inactive: 76%.
Under `Cc1ccc(NC(=O)Cn2nc(C)c3nn(-c4ccc(Cl)cc4)c(C)c3c2=O)cc1F` stands inactive: 70%; under `COc1ccc(N2CCN(C(=O)CSc3nc(-c4ccccc4)no3)CC2)cc1`, inactive: 83%.
For the molecule `COc1ccc(CNC(=O)c2cnn(-c3ccccc3)c2-n2cccc2)cc1OC`, the survival was inactive: 113%.
In the case of `CC(=O)c1cccc(NC(=O)CCn2nc(C)c(S(=O)(=O)N3CCCCC3)c2C)c1`, the survival is inactive: 134%.
`O=C(c1cccs1)N1CCCc2cc(NS(=O)(=O)c3cc(F)ccc3F)ccc21`: the survival is inactive: 73%.
The result for `CCc1ccccc1NC(=O)C1CCCN(S(=O)(=O)c2ccc3[nH]c(=O)ccc3c2)C1` (stereo unspecified) reads inactive: 88%; that for `Cc1ccc(OCC(=O)NCC(=O)OCc2cc(=O)n3nc(CC(C)C)sc3n2)cc1`, inactive: 100%; that for `O=C(NCCc1ccc(Cl)cc1)c1cnc2sc(N3CCCC3)nn2c1=O`, inactive: 74%.
As to `Cc1ccc(NC(=O)c2nc(S(=O)(=O)Cc3ccc(F)cc3)ncc2Cl)cc1C`, the survival is inactive: 84%.
With `CCOC(=O)c1[nH]c(C)c(CCC(=O)N2CCN(c3cc(C)ccc3C)CC2)c1C`, the survival is inactive: 102%.
The result for `Cc1ccc2oc(=O)c3cnn(CC(=O)N4CCN(c5cccc(Cl)c5)CC4)c3c2c1` reads inactive: 81%; that for `O=C(CSc1nc(=O)[nH]c2c1CCC2)Nc1cc(C(F)(F)F)ccc1Cl`, inactive: 87%; that for `Cc1cc(C(=O)NCCc2ccc(Cl)cc2)c2c(C)nn(-c3ccccc3)c2n1`, inactive: 77%.
On to `COc1cc(CNC(=O)c2ccc(NC(=O)N3CCCCc4ccccc43)cc2)cc(OC)c1OC`, for which the survival was inactive: 79%.
For the molecule `C=Cc1ccc(Cn2c(C)c(CNCCc3ccc(OCC)cc3)c(C(=O)O)c2C)cc1`, the survival is inactive: 79%.
Under `Cc1ccnc(NS(=O)(=O)c2ccc(NC(=O)c3ccc(C)c(C)c3)cc2)n1` stands inactive: 85%.
